Experimental data published in PMC8141534 (The Journal of Biological Chemistry, 2021).

Assays:
Rho, S. enterica = format: biochemical, Salmonella enterica; settings: peptide 50 μM, Rho 50 nM, λtR1 RNA; SD of two to three measurements
Rho, M.tb = format: biochemical, Mycobacterium tuberculosis; settings: peptide 50 μM, Rho 50 nM, poly(rC); SD of two to three measurements
Rho, X. campestris = format: biochemical, Xanthomonas campestris; settings: peptide 50 μM, Rho 50 nM, poly(rC); SD of two to three measurements

Sequence | Fraction of ATP Hydrolysed (%) (Rho, S. enterica) | Fraction of ATP Hydrolysed (%) (Rho, M.tb) | Fraction of ATP Hydrolysed (%) (Rho, X. campestris)
MHHHHHHTPAQGMIFSVKVRTGITSVSVKAWLFWRMREDFQPDTD [peptide 16] | 8 ± 0.8% | 28 ± 1% | 17 ± 5%
MHHHHHHTPAQFIFFRVKVRNWHTSVSVKAWLFWRMREDFQPDTD [peptide 33] | 11 ± 0.5% | 23 ± 1% | 14 ± 3%

Ends that are not written are not given here.
